To fix the notation:
B1: OR4K15 (parent)
chain: GUUAACGGUCAUAGGCCAUGGAAACUAGGAGCACCAUUUCGCUGCCAGUGAAGAAAUGAACAAAGAAAAUCUGGGCCAGGCAGGCAUCAAAAGAAAUAGUCUUGCGCUCAACCAGAAAGUCUGUAAUCAUUUUAAGGGUA

The source gives no read counts; variants with many changes may rest on few reads.

Variants of B1 are the subject of this series. Put plainly: self-cleavage, relative activity (ratio to wild type); higher = more cleavage; in vitro, sequencing; the parent is a self-cleaving ribozyme.
On to A23U A90G A134G U139C, for which the self-cleavage turned out to be 1.35.
For A23G U26C A33G A47C C109A, the self-cleavage worked out at 0.5.
The same measure for A22U A33G G58U A96G: 0.36.
Turning to A24C A63G A68G, the self-cleavage is 1.02.
Turning to A23C A52G A55G A95G A135G, the self-cleavage came out at 1.25.
A23G U102C U130C: the self-cleavage was 2.3.
The same measure for A22U A89G A140G: 1.41; for A23G A33C A62U U70A: 0.88.
The same measure for A23G U49C A69G A118G A129U: 0.44; for A22U A33G A110G: 0.06; for A23G A36G A47U A56G A60G: 0.54.
On to A23G A117G A129G, for which the self-cleavage was found to be 0.39.
Consider A23G C25A A111G, for which the self-cleavage was found to be 0.06.
The value for A23G G58U A117G was 1.69; that for A23U A118G U133C A140U was 1.75; that for A23C A111G A125G was 0.01.
Regarding A23G U43C A56G G74A U102A, the self-cleavage stood at 0.05.
Turning to A23G A64G G83A, the self-cleavage was determined as 1.49.
The same measure for A23G U103C G106A U108A: 0.01; for A23G A54G A68G A89G A96G: 1.13.
Turning to A23G A51G U87C A98U, the self-cleavage was found to be 1.2.
The same measure for A24C A63G U87C U108A: 0.01.
The same measure for A22G U127C U139A: 0.3; for A23G A54G U120C: 0.73.
The same measure for A23G A33U A54G U72A A90G U108C: 0.02; for A23G A47U U108A: 0.03.
For the variant A23G A24G A47G A67G A94G, the self-cleavage came out at 0.71.
The value for A23U U38C A91G A114G A126U was 0.81; that for A23G A63G A67G was 1.22; that for A24C A33G A55G A67G was 0.88.
A23G A52G A63G A82G A91G U132C: the self-cleavage amounted to 0.11.
The value for A23G A59G G65U was 1.48.
As for A22U A33G U72A A92U A117G A140G, the self-cleavage came out at 0.11.
A23G A30G A55G A129U: the self-cleavage is 0.75.
The value for A23G A69G U120A was 1.3.
The value for A23G A51U A67G U102C was 2.07.
The same measure for A23G A78G A86U A134G: 0.27.
As for A23G A95G U103C U124C, the self-cleavage turned out to be 0.53.
The value for A22U A60G A67C U132C was 2.29; that for A23U A30G A56G A94G was 0.16.
The same measure for A22U A51U U72C U139C: 0.28; for A23G A92G U102C A118U A135G: 1.42; for A23U U102C A134G: 1.51.
A22U A56G A98G: the self-cleavage was determined as 0.88.
On to A23G G74A U100C A111U G138A, for which the self-cleavage was determined as 0.02.
As for A23G A64G A68G U87A, the self-cleavage amounted to 1.63.
Consider A23G A30G U124A, for which the self-cleavage is 0.44.
Take A23G A52G A91G G93U: the self-cleavage worked out at 0.51.
The same measure for A23G A62G A94G: 1.36; for A24C A67U A118G: 0.21; for A22U A23U A66G A89U: 1.28.
For A23G A96G U120A A134G, the self-cleavage worked out at 1.84.
Regarding A22U U43A A51U A90G, the self-cleavage came to 0.96.
For A23G U43A A63G A68U, the self-cleavage stood at 1.8.
With A23G A47G A82G G104A U122A A134G, the self-cleavage is 0.01.
Consider A23G A82U U131C, for which the self-cleavage came out at 0.21.
A23G U122C U132A: the self-cleavage was determined as 0.48.
The same measure for A23U A27G A60G A95G A114G: 0.95.
Consider A22G U122C U130C, for which the self-cleavage came to 0.55.
The same measure for A23G U37C U49C A62G A116U: 0.04; for A23G A60G U102C U127G: 1.41; for A24C A27G U127C: 0.75.
Regarding A23U A66G A67G G79U A117U, the self-cleavage turned out to be 0.1.
With A24C A68G A95G, the self-cleavage was 2.31.
The value for A22U A30U A67G U70C A94U was 0.49; that for A23U A56G U127C was 1.31; that for A23C A67G U108C was 0.11.
The value for A23G A30U A66G C76U A90G was 0.17; that for A22U U43C U57C C77A was 0.53.
The value for A23U U37C A89G C112U was 0.02.
A22U A66G U70C A91G U97C C121U U132C: the self-cleavage is 0.28.
As to A23G A66U U87C, the self-cleavage amounted to 1.02.
For A23U U38C A56G U102C, the self-cleavage is 2.19.
With A23G A91G U132C, the self-cleavage turned out to be 0.81.
For A23C G44A A66U U100A, the self-cleavage was determined as 0.59.
The same measure for A23U A95G A118G: 1.53.
The same measure for A23G G28A A64G A66G A96G U100C U131C: 1.2; for A22U A24C A36U: 1.1.
The value for A22U A30G A60U A125G A140U was 0.56; that for A23G U38C U57A was 0.84.
As for A23G A86U A91G A94G A96G, the self-cleavage worked out at 1.54.
As for A23G A30G A60G A125G, the self-cleavage was 0.05.
A23G U38C U108C: the self-cleavage amounted to 0.05.
The value for A23G U49C A55G A78U was 0.24; that for A23G G83A U131A was 0.99.
Regarding A24C A54G C71U U72C A110U, the self-cleavage was 0.27.
On to A22U A51G U72A A96G U100C A114G A126G, for which the self-cleavage was 0.12.
The same measure for A23G G53A U130C U132A: 2.
With A23U A47G A55G G93A G106A U127A, the self-cleavage turned out to be 0.01.
The value for A23G A47G A64G U87A was 1.42.
Turning to A23U A66G A68G A91G, the self-cleavage is 0.82.
The value for A22U U38C U49C A68G was 1.02; that for A23G A59G U72C was 0.31.
With A24C A62U A82G A114U, the self-cleavage came to 0.06.
As for A23G A27U A30G A55G, the self-cleavage was 1.47.
A23G A69C G75U A117G: the self-cleavage is 0.14.
In the case of A23G U49C A62G A90G, the self-cleavage came out at 1.78.
The value for A23G U49C A51G U70A U100C was 1.51.
In the case of A23U A47G A63G A117G, the self-cleavage was determined as 0.83.
Turning to A23G A51G A60G A78U A114U A125U, the self-cleavage was determined as 0.02.
In the case of A23U A24C U49C U108C, the self-cleavage stood at 0.
With A23G A63G U87C A111U A140G, the self-cleavage was found to be 0.14.
The same measure for A23G A52G A54G U97C U108C: 0.05; for A23U A33G A54G A118G: 0.55; for A23G U49C A62U A117U: 1.
As for A22U A27G A47G A110G, the self-cleavage amounted to 0.27.
The value for A23G U38C A51G A62C A111G U133C was 0; that for A23G A78G A129U U133G was 0.18.
In the case of A24C A36G U70C A78U A96G A116U, the self-cleavage came to 0.06.
The same measure for A23G A92G A111G A126G: 0; for A23U A95U U122A A134G: 1.39; for A22U U38C U102C U122C A135G: 2.06.
The same measure for A23U C107U U122G: 0.03; for A24C A30U A47U C128U A129C: 0.5; for A23U C105U A118C U130C: 0.04.
A24C A63G A94G: the self-cleavage turned out to be 2.15.
Take A23G U26C A78C: the self-cleavage was 0.12.
The same measure for A23G A30U U49C A55G A62U A92G A114U: 0.
The value for A23U A78C A91G U127A A135G was 0.27; that for A23G U38A A89G U108C was 0.08; that for A23G A62G A116G was 0.77.
For the variant A23G U57C U102A, the self-cleavage was found to be 0.
For the variant A24C A55G C81G, the self-cleavage came to 0.24.
The same measure for A22U U49A U103C U132C A140G: 0.34; for A23G A36U A52G A64G A69G A86U: 0.89; for A23G A36U A56G: 1.65.
The same measure for A24C A30G A90G: 1.33.
In the case of A24C A60G C105U A118G U127C U132C, the self-cleavage came out at 0.
Consider A22U A30G U124C, for which the self-cleavage came out at 0.89.
The value for A23G A110G A117G C128A was 0.14; that for A23G C42U A67G was 0.82; that for A23G U43A U49G U72A was 0.08.
In the case of A22U U38C U39A A68G G75U, the self-cleavage was determined as 0.13.
The value for A23C A52G A118G U122C was 1.8; that for A23G U43A A47C A110U was 0.6.
The value for A23U A33G U57C A60G A68G A90C was 0.17; that for A23G U43C U72C A94G A111G was 0.05; that for A23G A36G A66G A92G A111G U132C was 0.01.
The value for A23U G31A A67G was 1.5.
On to A23G A33G A89U A110G, for which the self-cleavage amounted to 0.09.
The same measure for A23G U49C A125U: 1.09; for A22U U102C A111G U122C: 0.01; for A23G A33U U87C A118G: 1.83.
The value for A23G A90G A91G A92G A129G was 0.48; that for A23C G84A U100C U122C was 0.37; that for A22G U124A A140G was 0.96.
With A23G A54U A94U, the self-cleavage stood at 0.7.
The value for A23G A24G U57C was 0.81; that for A22U A78G A91U was 0.39; that for A23G A68G U133C A140G was 0.9.
The same measure for A23U A36G U108C: 0.02.
For the variant A23G U38C A62G U100A, the self-cleavage came out at 0.22.
The value for A23U A92G A96G was 0.86; that for A23G U100A U102C A114U was 0.12.
As to A23U U37C U43A A98U U100C, the self-cleavage turned out to be 2.89.
In the case of A23G A47U U120C, the self-cleavage amounted to 0.16.
Regarding A23G A30G U38A G123A, the self-cleavage was determined as 1.73.
The same measure for A23G A55U A56G A129G: 0.7; for A23G A64G A96G A98G U103C: 0.09; for A23G A52U A118G: 0.92.
The value for A23G U120A U132C was 1.65.
The same measure for A23G A78U A91G: 0.13.
Turning to A22U A82G G119A, the self-cleavage is 0.62.
As to A23G U49A A69G, the self-cleavage came to 0.47.
The value for A23U U39C A95G U132C was 1.02; that for A23G A52G A54G A69G was 1.01; that for A23G A47G U49A was 0.51.

For the origin of these results see the RNAGym collection of RNA variant scans (doi:10.7554/elife.90254).
